From publication PMC4336329 (PLoS ONE, 2015)
Among all 310,000 compounds or so, about 2,200 (0.71%) showed an effect of 50% or more. Effects have a minus sign here. Some of the results follow.

These compounds were tested against human ether-à-go-go-related gene (hERG) potassium channel (human, UniProt Q12809) (assay: primary screen, population patch clamp on CHO cells stably expressing hERG).
human ether-à-go-go-related gene (hERG) potassium channel, sequence (Q12809 whole entry, looked up): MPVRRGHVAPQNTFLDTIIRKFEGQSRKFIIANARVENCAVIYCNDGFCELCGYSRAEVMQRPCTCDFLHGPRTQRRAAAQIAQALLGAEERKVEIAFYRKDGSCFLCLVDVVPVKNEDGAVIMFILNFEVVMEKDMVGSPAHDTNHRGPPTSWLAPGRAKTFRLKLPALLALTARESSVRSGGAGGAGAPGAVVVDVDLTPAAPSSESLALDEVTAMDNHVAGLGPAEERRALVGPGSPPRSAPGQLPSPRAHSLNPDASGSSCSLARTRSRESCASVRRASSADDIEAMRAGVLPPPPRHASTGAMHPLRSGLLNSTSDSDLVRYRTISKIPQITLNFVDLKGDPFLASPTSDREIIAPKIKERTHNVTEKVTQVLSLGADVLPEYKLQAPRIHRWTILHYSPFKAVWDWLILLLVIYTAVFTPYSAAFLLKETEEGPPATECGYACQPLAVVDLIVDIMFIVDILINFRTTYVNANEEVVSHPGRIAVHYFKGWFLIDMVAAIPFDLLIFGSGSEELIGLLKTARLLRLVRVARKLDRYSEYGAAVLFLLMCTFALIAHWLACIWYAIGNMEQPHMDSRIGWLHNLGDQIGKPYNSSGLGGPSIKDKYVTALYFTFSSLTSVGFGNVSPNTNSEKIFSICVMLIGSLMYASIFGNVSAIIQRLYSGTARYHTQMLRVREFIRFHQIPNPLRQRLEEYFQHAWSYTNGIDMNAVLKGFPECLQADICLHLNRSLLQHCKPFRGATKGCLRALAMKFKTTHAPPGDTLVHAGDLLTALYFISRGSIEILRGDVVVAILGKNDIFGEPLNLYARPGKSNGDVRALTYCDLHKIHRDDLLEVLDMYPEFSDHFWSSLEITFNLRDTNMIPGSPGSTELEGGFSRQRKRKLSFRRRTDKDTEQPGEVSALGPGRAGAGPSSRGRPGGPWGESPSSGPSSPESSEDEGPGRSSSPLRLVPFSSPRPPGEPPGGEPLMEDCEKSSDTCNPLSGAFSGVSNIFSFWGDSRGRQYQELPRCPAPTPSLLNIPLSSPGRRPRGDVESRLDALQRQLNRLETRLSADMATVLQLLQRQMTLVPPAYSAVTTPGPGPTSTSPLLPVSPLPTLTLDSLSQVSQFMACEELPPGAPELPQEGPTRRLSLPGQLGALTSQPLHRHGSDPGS
For `COc1cc(/C=N/Nc2nc3ccccc3o2)cc(OC)c1O`, the “hERG current change (%, negative = inhibition) at 1uM” value was 12.8%.
In the case of `CCOC(=O)N1CCN(C(=O)C2CC(=O)N(c3ccccc3)C2)CC1` (centres unmarked), the “hERG current change (%, negative = inhibition) at 1uM” value is reported as 9.88%.
With `O=C(Oc1c(Cl)cc(Cl)c2ccccc12)N1CCCCC1` the “hERG current change (%, negative = inhibition) at 1uM” value was 6.81%.
In the case of `COc1ccccc1NC(=O)c1c(C)oc2c1CCCC2`, the “hERG current change (%, negative = inhibition) at 1uM” value is reported as 8.91%.
For `NC(=O)Cn1nnc(-c2ccc(NC(=O)c3ccc(F)cc3)cc2)n1`, the “hERG current change (%, negative = inhibition) at 1uM” value was 4.51%.
In the case of `COc1ccc(CCn2c(-c3ccc(OC)cc3)nc3c(c(=O)c4ccccc4n3C)c2=O)cc1`, the “hERG current change (%, negative = inhibition) at 1uM” value is reported as 13.8%.
With `CC(C)CC(NC(N)=O)C(=O)OCC(=O)Nc1ccc(OC(F)F)cc1` (centres unmarked) the “hERG current change (%, negative = inhibition) at 1uM” value was 2.96%.
For `COc1ccc(OC)c(CNc2ccc(F)c(Cl)c2)c1`, the “hERG current change (%, negative = inhibition) at 1uM” value was 13.7%.
In the case of `CC(NC(=O)c1ccco1)c1cccc2ccccc12` (centres unmarked), the “hERG current change (%, negative = inhibition) at 1uM” value is reported as 0.0621%.
In the case of `CC(C)OC(=O)NCN1C(=O)C2C3C=CC(C3)C2C1=O` (centres unmarked), the “hERG current change (%, negative = inhibition) at 1uM” value is reported as 14.8%.
In the case of `Cn1c(=O)c(C(=O)CSc2ccccc2)c(N)n(Cc2ccccc2)c1=O`, the “hERG current change (%, negative = inhibition) at 1uM” value is reported as 15.7%.
In the case of `CC1CCN(S(=O)(=O)c2cccc(C(=O)N(C)C3CCS(=O)(=O)C3)c2)CC1` (centres unmarked), the “hERG current change (%, negative = inhibition) at 1uM” value is reported as 13.1%.
`COc1cccc(C2c3[nH]c4ccccc4c3C[C@H]3C(=O)N(C4CC4)CC(=O)N23)c1` (some centres unmarked) was tested, and the “hERG current change (%, negative = inhibition) at 1uM” value was 7.67%.
`COc1ccc(CCN2C(=O)CC(C(N)=O)SC2=Nc2ccc(F)cc2)cc1OC` (centres unmarked) was tested, and the “hERG current change (%, negative = inhibition) at 1uM” value was 6.66%.
`CCOC(=O)C1CCCN(c2c(NCCN3CCCCC3CC)c(=O)c2=O)C1` (centres unmarked) was tested, and the “hERG current change (%, negative = inhibition) at 1uM” value was 4.74%.
For `CC(C)CNc1c(N)c(=O)oc2ccccc12`, the “hERG current change (%, negative = inhibition) at 1uM” value was 0.11%.
`Cn1c(CSCc2ccc(Cl)c(Cl)c2)n[nH]c1=S` was tested, and the “hERG current change (%, negative = inhibition) at 1uM” value was 6.44%.
For `O=C(c1ccccc1)c1ccc(N2CCOCC2)c(F)c1`, the “hERG current change (%, negative = inhibition) at 1uM” value was 12.3%.
`Cc1ccc(NC(=O)CSc2n[nH]c(C)c2[N+](=O)[O-])cc1` was tested, and the “hERG current change (%, negative = inhibition) at 1uM” value was 7.62%.
`Cn1c(=O)c2c(nc(N/N=C/c3cccnc3)n2Cc2ccc(F)cc2)n(C)c1=O` was tested, and the “hERG current change (%, negative = inhibition) at 1uM” value was 14.3%.
`Oc1ccc(NCc2cccs2)cc1` was tested, and the “hERG current change (%, negative = inhibition) at 1uM” value was 4.52%.
In the case of `CNC(=O)N(O)C1N(/N=C/c2cccs2)C(=S)SC1(C)C` (centres unmarked), the “hERG current change (%, negative = inhibition) at 1uM” value is reported as 13.4%.
For `CCOc1ncccc1C(=O)OC(C)C(=O)Nc1ccc(CC)cc1` (centres unmarked), the “hERG current change (%, negative = inhibition) at 1uM” value was 12.9%.
For `Cc1csc(SCC(=O)Nc2cc(C(C)(C)C)nn2-c2ccccc2)n1`, the “hERG current change (%, negative = inhibition) at 1uM” value was 1.88%.
`CCC1CCCCN1CCCNC(=O)c1cn(CC)c2ccc(S(=O)(=O)N3CCc4ccccc4C3)cc2c1=O` (centres unmarked) was tested, and the “hERG current change (%, negative = inhibition) at 1uM” value was 1.2%.
`CC1CN(C(=S)NC(=O)c2ccc([N+](=O)[O-])cc2)CC(C)O1` (centres unmarked) was tested, and the “hERG current change (%, negative = inhibition) at 1uM” value was 5.35%.
`Cc1cnccc1CNC(=O)C1CCC(=O)N(Cc2ccc(Cl)cc2)C1` (centres unmarked) was tested, and the “hERG current change (%, negative = inhibition) at 1uM” value was -6.11%.
`CCOc1ccc(C(C)=O)cc1N1C(=O)C2C(C1=O)C1C=CC2C12CC2` (centres unmarked) was tested, and the “hERG current change (%, negative = inhibition) at 1uM” value was 10.6%.
With `COc1cc(N(Cc2ccccc2)Cc2ccccc2)c2ncn(C(C)C)c2c1` the “hERG current change (%, negative = inhibition) at 1uM” value was 8.78%.
With `COc1cccc(/C=N/Nc2nn3cnnc3c3ccccc23)c1` the “hERG current change (%, negative = inhibition) at 1uM” value was -2.21%.
`CCOC(=O)C1(S(=O)(=O)c2ccc(Cl)cc2)CCN(Cc2ccc(Cl)cc2)CC1` was tested, and the “hERG current change (%, negative = inhibition) at 1uM” value was 23%.
`Cc1cc(C)c(NC(=O)C2CCCN2C)c(C)c1` (centres unmarked) was tested, and the “hERG current change (%, negative = inhibition) at 1uM” value was 22.4%.
In the case of `Cc1c(C(=O)OC(C)C)sc2nc[nH]c(=O)c12`, the “hERG current change (%, negative = inhibition) at 1uM” value is reported as 9.66%.
With `CC(C)CC(=O)Nc1ccc(-c2cn3ccsc3n2)cc1` the “hERG current change (%, negative = inhibition) at 1uM” value was 12.1%.
`CC(C)OC(=O)c1nnn(-c2nonc2N)c1CN1CCCCCC1` was tested, and the “hERG current change (%, negative = inhibition) at 1uM” value was -5.97%.
In the case of `CCN(CC)S(=O)(=O)c1ccc(N=Nc2c(C)[nH]n(C(N)=S)c2=O)cc1`, the “hERG current change (%, negative = inhibition) at 1uM” value is reported as 7.3%.
For `CC1CCc2cc(F)ccc2N1C(=O)c1cnc2sccn2c1=O` (centres unmarked), the “hERG current change (%, negative = inhibition) at 1uM” value was 16.2%.
In the case of `CCOC(=O)c1c(C)[nH]c(C(=O)OCc2ccccc2F)c1C`, the “hERG current change (%, negative = inhibition) at 1uM” value is reported as 14.4%.
With `CC(C)C(NS(=O)(=O)c1cccc2nsnc12)C(=O)N1CCc2ccccc2C1` (centres unmarked) the “hERG current change (%, negative = inhibition) at 1uM” value was 7.87%.
`O=C(Cn1c(=O)sc2ccccc21)OC(CCl)CCl` was tested, and the “hERG current change (%, negative = inhibition) at 1uM” value was 14.8%.
For `O=C(O)c1ccccc1NC(=O)c1ccccc1-c1ccccc1C(=O)O`, the “hERG current change (%, negative = inhibition) at 1uM” value was 15.3%.
`COC(=O)c1ccc(NC(=O)CNc2ccccc2)cc1` was tested, and the “hERG current change (%, negative = inhibition) at 1uM” value was 8.51%.
With `Cc1ccc(CN2CCN(Cc3cccn3-c3ccccn3)CC2CCO)cc1` (centres unmarked) the “hERG current change (%, negative = inhibition) at 1uM” value was -82.4%.
`CCc1ccccc1N(CC(=O)NCc1ccco1)C(=O)c1snc(C(N)=O)c1N` was tested, and the “hERG current change (%, negative = inhibition) at 1uM” value was 8.06%.
For `O=C(c1ccc2c(c1)[nH]c(=S)n1c3ccccc3nc21)N1CCN(c2ncccn2)CC1`, the “hERG current change (%, negative = inhibition) at 1uM” value was -5.76%.
In the case of `O=C(Nc1cccc2ccccc12)c1ccc([N+](=O)[O-])s1`, the “hERG current change (%, negative = inhibition) at 1uM” value is reported as 2.49%.
With `COC(=O)C1Cc2c([nH]c3ccccc23)C(C)N1` (centres unmarked) the “hERG current change (%, negative = inhibition) at 1uM” value was -7.31%.
With `Cn1cc(CN2CCC(C(=O)N3CCCC3)CC2)c(-c2ccccc2F)n1` the “hERG current change (%, negative = inhibition) at 1uM” value was 2.92%.
`COc1ccc(-c2nnc(NC(=O)c3cc(Cl)ccc3Cl)o2)cc1` was tested, and the “hERG current change (%, negative = inhibition) at 1uM” value was 5.11%.
With `COC(=O)c1cccc(NC2CC(=O)N(c3ccc(OC)c(OC)c3)C2=O)c1` (centres unmarked) the “hERG current change (%, negative = inhibition) at 1uM” value was 4.37%.
In the case of `Cc1ccc(-c2nn(C)c(=O)c3ccccc23)cc1S(=O)(=O)NCCN(C)C`, the “hERG current change (%, negative = inhibition) at 1uM” value is reported as 2.52%.
In the case of `O=C(O)COc1ccc2oc3ccccc3c2c1`, the “hERG current change (%, negative = inhibition) at 1uM” value is reported as 8.83%.
In the case of `COC(=O)C1CC(c2c(OC)cc(OC)cc2OC)=NO1` (centres unmarked), the “hERG current change (%, negative = inhibition) at 1uM” value is reported as 9.26%.
With `CSCCC(=O)N1CCCC(CO)(CCCc2ccccc2)C1` (centres unmarked) the “hERG current change (%, negative = inhibition) at 1uM” value was 12.1%.
For `Cc1ccc(CNC(=O)Cn2c(=O)n(-c3ccccc3)c(=O)c3sccc32)cc1`, the “hERG current change (%, negative = inhibition) at 1uM” value was 3.22%.
For `COC(=O)/C=C/C(=O)N1CCN(c2ccccc2)CC1`, the “hERG current change (%, negative = inhibition) at 1uM” value was -4.62%.
In the case of `O=C1CC(/C=C/c2cccnc2)=Nc2ccccc2N1`, the “hERG current change (%, negative = inhibition) at 1uM” value is reported as 10.3%.
`Cc1cc(=O)[nH]c(CCl)n1` was tested, and the “hERG current change (%, negative = inhibition) at 1uM” value was 16.8%.
For `Clc1ccc(/C=N\Nc2ccccc2)cc1`, the “hERG current change (%, negative = inhibition) at 1uM” value was 13.6%.
